# The supplement of paper PMC8728848
# The list shows a part of the results.
# What was measured:
# Test in all cases: glycan array binding signal (z-score within array); higher = stronger binding
# Conditions in all cases: glycan notation: IUPAC condensed, linker removed
# [1] = molecular target: Fuc(a1-2)Gal(b1-4)GlcNAc(b1-3)Gal(b1-4)GlcNAc(b1-3)Gal(b1-4)GlcNAc
# How it was run: (§1)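 The Consortium for Functional Glycomics database supplied 3228 glycan arrays, of which those lacking an available protein sequence were dropped. The binding signal, a within-array Z-score, was averaged across arrays of the same protein sequence and across linkers. Negative scores can be read as non-binding.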
# [2] = molecular target: Fuc(a1-2)Gal(b1-4)GlcNAc(b1-3)GalNAc
# How it was run: as §1
# [3] = molecular target: Fuc(a1-2)Gal(b1-4)GlcNAc(b1-3)[Fuc(a1-2)Gal(b1-4)GlcNAc(b1-6)]GalNAc
# How it was run: as §1
# [4] = molecular target: Fuc(a1-2)Gal(b1-4)GlcNAc(b1-3)[Fuc(a1-3)[Gal(b1-4)]GlcNAc(b1-6)]Gal(b1-4)Glc
# How it was run: as §1
# [5] = molecular target: Fuc(a1-2)Gal(b1-4)GlcNAc(b1-6)GalNAc
# How it was run: as §1
# [6] = molecular target: Fuc(a1-2)Gal(b1-4)GlcNAc6S
# How it was run: as §1
# [7] = molecular target: Fuc(a1-2)Gal(b1-4)[Fuc(a1-3)]GlcNAc
# How it was run: as §1
# [8] = molecular target: Fuc(a1-2)Gal(b1-4)[Fuc(a1-3)]GlcNAc(b1-2)Man(a1-3)[Fuc(a1-2)Gal(b1-4)[Fuc(a1-3)]GlcNAc(b1-2)Man(a1-6)]Man(b1-4)GlcNAc(b1-4)[Fuc(a1-6)]GlcNAc
# How it was run: as §1
# [9] = molecular target: Fuc(a1-2)Gal(b1-4)[Fuc(a1-3)]GlcNAc(b1-2)[Fuc(a1-2)Gal(b1-4)[Fuc(a1-3)]GlcNAc(b1-4)]Man(a1-3)[Fuc(a1-2)Gal(b1-4)[Fuc(a1-3)]GlcNAc(b1-2)Man(a1-6)]Man(b1-4)GlcNAc(b1-4)GlcNAc
# How it was run: as §1
# [10] = molecular target: Fuc(a1-2)Gal(b1-4)[Fuc(a1-3)]GlcNAc(b1-3)Gal(b1-4)[Fuc(a1-3)]GlcNAc
# How it was run: as §1
# [11] = molecular target: Fuc(a1-2)Gal(b1-4)[Fuc(a1-3)]GlcNAc(b1-3)Gal(b1-4)[Fuc(a1-3)]GlcNAc(b1-3)Gal(b1-4)[Fuc(a1-3)]GlcNAc
# How it was run: as §1
# [12] = molecular target: Fuc(a1-2)Gal(b1-4)[Fuc(a1-3)]GlcNAc(b1-3)GalNAc
# How it was run: as §1
# [13] = molecular target: Fuc(a1-2)Gal(b1-4)[Fuc(a1-3)]GlcNAc(b1-3)[Neu5Ac(a2-6)Gal(b1-4)GlcNAc(b1-6)]Gal(b1-4)Glc
# How it was run: as §1
# [14] = molecular target: Fuc(a1-2)Gal3S(b1-4)GlcNAc
# How it was run: as §1
# [15] = molecular target: Fuc(a1-2)Gal6S(b1-3)GlcNAc
# How it was run: as §1
# [16] = molecular target: Fuc(a1-2)Gal6S(b1-3)GlcNAc6S
# How it was run: as §1
# [17] = molecular target: Fuc(a1-2)Gal6S(b1-4)Glc
# How it was run: as §1
# [18] = molecular target: Fuc(a1-2)Gal6S(b1-4)Glc6S
# How it was run: as §1
# [19] = molecular target: Fuc(a1-2)[Gal(a1-3)]Gal
# How it was run: as §1
# [20] = molecular target: Fuc(a1-2)[Gal(a1-3)]Gal(b1-3)GalNAc
# How it was run: as §1
# [21] = molecular target: Fuc(a1-2)[Gal(a1-3)]Gal(b1-3)GalNAc(b1-3)Gal(a1-4)Gal(b1-4)Glc
# How it was run: as §1
# [22] = molecular target: Fuc(a1-2)[Gal(a1-3)]Gal(b1-3)GlcNAc
# How it was run: as §1
# [23] = molecular target: Fuc(a1-2)[Gal(a1-3)]Gal(b1-3)GlcNAc(b1-2)Man(a1-3)[Fuc(a1-2)[Gal(a1-3)]Gal(b1-3)GlcNAc(b1-2)Man(a1-6)]Man(b1-4)GlcNAc(b1-4)GlcNAc
# How it was run: as §1
# [24] = molecular target: Fuc(a1-2)[Gal(a1-3)]Gal(b1-3)GlcNAc(b1-2)Man(a1-3)[Fuc(a1-2)[Gal(a1-3)]Gal(b1-3)GlcNAc(b1-2)Man(a1-6)]Man(b1-4)GlcNAc(b1-4)[Fuc(a1-6)]GlcNAc
# How it was run: as §1
# [25] = molecular target: Fuc(a1-2)[Gal(a1-3)]Gal(b1-3)GlcNAc(b1-3)GalNAc
# How it was run: as §1
# [26] = molecular target: Fuc(a1-2)[Gal(a1-3)]Gal(b1-3)GlcNAc(b1-6)GalNAc
# How it was run: as §1
# [27] = molecular target: Fuc(a1-2)[Gal(a1-3)]Gal(b1-4)Glc
# How it was run: as §1
# [28] = molecular target: Fuc(a1-2)[Gal(a1-3)]Gal(b1-4)GlcNAc
# How it was run: as §1
# [29] = molecular target: Fuc(a1-2)[Gal(a1-3)]Gal(b1-4)GlcNAc(b1-2)Man
# How it was run: as §1
# [30] = molecular target: Fuc(a1-2)[Gal(a1-3)]Gal(b1-4)GlcNAc(b1-2)Man(a1-3)[Fuc(a1-2)[Gal(a1-3)]Gal(b1-4)GlcNAc(b1-2)Man(a1-6)]Man(b1-4)GlcNAc(b1-4)GlcNAc
# How it was run: as §1
binder,measurement,setting,value
B725 (Bifidobacterium sp) (protein) MNNTTRAVIATAAIGALLIPLAGCGNTTTSSGKTELTVWSWDASIDRAAKSFMKANPDITVKVSNVGSTEETYTALNNAAQAGSGLPDVTLIEYLAIPQFVHSDTLMDLSKVYNTAKLKDTFTPGTWNSVNINGGLYAMPADSGPMAYFYDKDVFDKAGISEPPTTWDEFYEDAKKIRATGSYITSDSGDAGLFNAMMWAMGGHAYKLNDDKLTINIAKDKGAQRFMDLWQKMRDEDLIDVHTKTWTDDWMKSLGDGSIASLISGAWMANNLLQGVPQATGKFRVALLPTIDGTPINGEYGGSGLAITKKIPDGKLDAAKKFVEYVTTNDEGIDARVSNGSFPATTKTLNQKDFLAKTTLRNTDGSDNEFFGGQKYNEIFSQAAKDVTGKWEFLPFEPYARSVYNDNMGSFFAGKTSFRTAADNWQKALKDYAKDQGFTVQ,glycan array binding signal (z-score),[1],-0.08
same,glycan array binding signal (z-score),[2],-0.185
same,glycan array binding signal (z-score),[3],-0.196
same,glycan array binding signal (z-score),[4],-0.214
same,glycan array binding signal (z-score),[5],-0.219
same,glycan array binding signal (z-score),[6],-0.206
same,glycan array binding signal (z-score),[7],-0.236
same,glycan array binding signal (z-score),[8],-0.214
same,glycan array binding signal (z-score),[9],-0.197
same,glycan array binding signal (z-score),[10],-0.216
same,glycan array binding signal (z-score),[11],-0.201
same,glycan array binding signal (z-score),[12],-0.201
same,glycan array binding signal (z-score),[13],-0.217
same,glycan array binding signal (z-score),[14],-0.229
same,glycan array binding signal (z-score),[15],-0.251
same,glycan array binding signal (z-score),[16],-0.198
same,glycan array binding signal (z-score),[17],-0.199
same,glycan array binding signal (z-score),[18],-0.219
same,glycan array binding signal (z-score),[19],-0.222
same,glycan array binding signal (z-score),[20],-0.213
same,glycan array binding signal (z-score),[21],-0.238
same,glycan array binding signal (z-score),[22],-0.219
same,glycan array binding signal (z-score),[23],-0.198
same,glycan array binding signal (z-score),[24],-0.179
same,glycan array binding signal (z-score),[25],-0.233
same,glycan array binding signal (z-score),[26],-0.203
same,glycan array binding signal (z-score),[27],-0.231
same,glycan array binding signal (z-score),[28],-0.232
same,glycan array binding signal (z-score),[29],-0.216
same,glycan array binding signal (z-score),[30],-0.228
